The source of these data is publication PMC4336329 (PLoS ONE, 2015).

Hit rate of the full screen: of about 310,000 compounds, about 2,200 (0.71%) showed an effect of 50% or more. The effect is printed as a negative number. The list shows a part of the results. Where a SMILES comes first, the peptide text is derived from it. [ ]: non-standard residue; d: D form. The star is where a group is joined. ξ: configuration not given here. Cbz = O=C(OCc1ccccc1)*; ξL = CC(C)CC(N)C(=O)O; ξP = O=C(O)C1CCCN1

For this test, the target named is human ether-à-go-go-related gene (hERG) potassium channel (human, UniProt Q12809). Put plainly: primary screen, population patch clamp on CHO cells stably expressing hERG.
Sequence of human ether-à-go-go-related gene (hERG) potassium channel (Q12809 whole entry, looked up): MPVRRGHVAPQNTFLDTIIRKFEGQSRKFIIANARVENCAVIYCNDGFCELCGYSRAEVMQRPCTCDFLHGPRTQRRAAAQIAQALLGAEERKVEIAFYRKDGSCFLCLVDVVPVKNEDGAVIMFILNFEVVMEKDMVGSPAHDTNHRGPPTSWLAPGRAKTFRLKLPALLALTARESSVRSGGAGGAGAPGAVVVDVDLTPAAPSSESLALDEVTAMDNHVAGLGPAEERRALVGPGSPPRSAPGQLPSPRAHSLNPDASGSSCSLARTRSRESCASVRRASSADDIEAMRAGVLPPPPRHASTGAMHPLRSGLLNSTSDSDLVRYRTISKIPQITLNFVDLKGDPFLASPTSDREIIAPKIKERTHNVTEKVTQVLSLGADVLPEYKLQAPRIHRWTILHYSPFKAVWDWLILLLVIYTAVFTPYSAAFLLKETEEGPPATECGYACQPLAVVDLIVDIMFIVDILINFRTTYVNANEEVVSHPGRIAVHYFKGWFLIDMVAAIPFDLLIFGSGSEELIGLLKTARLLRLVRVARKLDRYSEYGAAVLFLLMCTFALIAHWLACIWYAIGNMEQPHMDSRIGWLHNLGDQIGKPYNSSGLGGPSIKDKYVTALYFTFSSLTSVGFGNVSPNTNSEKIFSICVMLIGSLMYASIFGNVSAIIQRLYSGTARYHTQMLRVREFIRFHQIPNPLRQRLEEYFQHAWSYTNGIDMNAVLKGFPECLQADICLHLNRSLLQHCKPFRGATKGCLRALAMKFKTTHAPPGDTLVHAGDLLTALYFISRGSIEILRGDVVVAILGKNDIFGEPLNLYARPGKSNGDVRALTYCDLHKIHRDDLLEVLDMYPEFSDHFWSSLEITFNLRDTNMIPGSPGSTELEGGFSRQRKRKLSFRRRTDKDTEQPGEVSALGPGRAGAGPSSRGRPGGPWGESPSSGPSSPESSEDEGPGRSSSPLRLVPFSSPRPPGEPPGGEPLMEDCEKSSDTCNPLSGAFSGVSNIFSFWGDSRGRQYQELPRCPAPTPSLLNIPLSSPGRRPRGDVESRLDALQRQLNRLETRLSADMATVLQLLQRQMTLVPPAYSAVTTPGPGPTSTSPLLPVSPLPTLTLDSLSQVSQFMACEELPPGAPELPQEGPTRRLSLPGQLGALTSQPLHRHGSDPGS
Consider `CCOC(=O)c1c(NC(=O)C2C3C=CC(CC3)C2C(=O)O)sc(C)c1CC` (centres unmarked), for which the “hERG current change (%, negative = inhibition) at 1uM” value is on record as 4.12%.
The result for `CC(=O)c1ccc(NC(=O)/C(Cl)=C/c2ccccc2)cc1` reads 15.1%.
Under `Cc1nc(-c2ccccn2)sc1C(=O)O` stands 13.5%; under `CC(=O)Nc1ccc(C(=O)N/N=C/c2cc(Br)cc(Br)c2O)cc1`, 12.1%; under `Cc1ccc(NC2=NC(C(=O)Nc3ccc(C)c(C)c3)CC(=O)N2)cc1` (centres unmarked), 4.67%.
The result for `CN1CCN(C(=O)c2cccn(Cc3cccc(Cl)c3)c2=O)CC1` reads 12.8%; that for `Cc1ccc(CN(c2ccc(C(=O)NCC3CCCO3)cc2)S(C)(=O)=O)cc1` (centres unmarked), 6.06%.
Regarding `CN(C)c1[nH]c(=O)c(C#N)c2c1CCN2Cc1ccccc1`, the “hERG current change (%, negative = inhibition) at 1uM” value was found to be 6.8%.
Under `CCN1C(=O)NC(=O)/C(=C\c2cn(CC(=O)N3CCCCC3C)c3ccccc23)C1=O` (centres unmarked) stands 16.4%; under `CN(Cc1ccccc1)C(=O)COC(=O)c1ccccc1Nc1ccccc1`, 17.7%; under `CN1CCc2nc3sc(C(=O)C45CC6CC(CC(C6)C4)C5)c(N)c3cc2C1`, 7.67%.
Under `O=C(Nc1ccsc1C(=O)O)c1ccc(Cl)cc1` stands 11.5%.
Under `COc1cc(CC(=O)OCC(=O)N2CCCCC2C)cc(OC)c1OC` (centres unmarked) stands 4.36%; under `COc1ccc(-c2nc(/C=C3\C(C)=Nc4ccccc43)c(O)o2)cc1`, -3.55%.
In the case of `COc1cccc(-c2noc(-c3cccnc3)n2)c1`, the “hERG current change (%, negative = inhibition) at 1uM” value is on record as 9.47%.
As to `COc1ccccc1-c1ccc(=O)n(CC(=O)Nc2ccc(C(=O)N3CCCC3)cc2)n1`, the “hERG current change (%, negative = inhibition) at 1uM” value stood at 0.634%.
Under `C[C@H](NC(=O)c1nc[nH]c1C(=O)NCCCCC[NH3+])C(=O)OC(C)(C)C.[Cl-]` stands 18.3%; under `Cc1cccn2c(=O)c(/C=C(\C#N)S(=O)(=O)c3ccc(Cl)cc3)c(N3CCC(C(N)=O)CC3)nc12`, -16%.
Under `Cc1scc(-c2n[nH]c(=S)n2C(C)c2ccccc2)c1C` (centres unmarked) stands 8.59%; under `CC(Oc1ccccc1)c1ccnc2nc(N3CCOCC3)nn12` (centres unmarked), 10.7%; under `CC1CN(C(=O)CCC(=O)N2CCCCC2)c2cc(Cl)ccc2O1` (centres unmarked), 6.37%.
With `O=C(N/N=C/c1cccc([N+](=O)[O-])c1)c1cc[n+](CCO)cc1.[Cl-]`, the “hERG current change (%, negative = inhibition) at 1uM” value was 16%.
The result for `COc1ccccc1NC(=S)NC(=O)/C=C/c1cccs1` reads 12.3%.
Under `O=c1cc(O)c2ccccc2n1Cc1ccccc1Cl` stands 3.63%.
The result for `O=C(Nc1ccc(Cl)cc1)c1cc(Br)ccc1OCC(=O)N1CCOCC1` reads 9.68%.
As for `O=C(O)c1ccc(OCc2cn3ccccc3n2)cc1`, the “hERG current change (%, negative = inhibition) at 1uM” value was determined as 9.46%.
The result for `O=C1NC(=O)C2(Cc3ccccc3N3CCOCC32)C(=O)N1c1ccccc1` (centres unmarked) reads 0.829%; that for `Cc1cccc(NC(=O)N2C[C@H]3C[C@@H](C2)c2cccc(=O)n2C3)c1`, 2.69%; that for `COCCN1CCN(C(=O)c2ccc3oc(CCCc4ccccc4)nc3c2)CC1`, 9.42%.
The result for `CC(C)CNC(=O)c1ccc(C2SCC(=O)N2Cc2ccccc2)cc1` (centres unmarked) reads 6.56%.
The result for `O=C1c2ccccc2NC2CCCCC12` (centres unmarked) reads 12.7%; that for `CC(C)(C)C1=C(C#N)C(c2cc3c(cc2Br)OCO3)C(C#N)=C(N)O1` (centres unmarked), 8.25%; that for `CCN(CCO)C(=O)C12CCC(C)(C(=O)C1)C2(C)C` (centres unmarked), -2.44%.
For the compound `O=C(Nc1cccc(Cl)c1)c1ccc(NC2=NC3CS(=O)(=O)CC3S2)cc1` (centres unmarked), the “hERG current change (%, negative = inhibition) at 1uM” value is reported as -1.79%.
The result for `Cc1ccc(C)c(N2CCN(C3CCCC(C)C3)CC2)c1` (centres unmarked) reads 2.86%.
The result for `COCCCNCCOCCOc1c(OC)cccc1OC` reads 14.9%.
Under `CC(NC(=O)c1ccco1)C(=O)O` (centres unmarked) stands 9.01%; under `CC(C)NS(=O)(=O)c1ccc(NC(=O)C(C)OC(=O)CCC2CCCC2)cc1` (centres unmarked), 12.2%.
On to `COc1cc(NC(=O)CN(c2ccc(C)cc2)S(=O)(=O)c2c(C)nn(C)c2C)cc(OC)c1`, for which the “hERG current change (%, negative = inhibition) at 1uM” value is listed as 8.32%.
The result for `Cc1oc2c(c(C)cc3oc(=O)c(CC(=O)NCCCN4CCCC4=O)c(C)c32)c1C` reads 8.77%; that for `CC(=O)N1c2ccc(S(=O)(=O)NCC3CCC(C(=O)N4CCCCC4)CC3)cc2CC1C` (centres unmarked), 14.1%; that for `COc1ccccc1NC(=O)CC(=O)CSc1nnc(-c2ccc(C)cc2)n1C`, -3.75%.
The result for `O=C(COc1cc2oc(=O)cc(-c3ccccc3)c2cc1Cl)NCc1ccccn1` reads 1.89%; that for `CCCCNC(=O)[C@@](CC)(ONc1ccccc1C(F)(F)F)c1cccc2ccccc12`, 19.1%; that for `COC(=O)CN1C(=S)N(c2ccc(Cl)cc2)C(=O)C1CC(=O)Nc1ccc(Cl)cc1` (centres unmarked), 10.7%.
Under `CCOC(=O)C1=NN(c2cccc(C)c2)C2(S1)SC(C(C)=O)=C(C)N2c1ccccc1` (centres unmarked) stands 13%; under `CCOC(=O)c1ccc(N=C(c2ccccc2)c2c(O)n(C)c(=O)n(C)c2=O)cc1`, 10.4%.
As for `CN(C)c1ccc(/C=N/NC(=O)c2ccc(Cn3cc(Br)cn3)o2)cc1`, the “hERG current change (%, negative = inhibition) at 1uM” value is -1.08%.
Under `Cc1cccc(CCNC(=O)CNS(=O)(=O)c2ccc3nc(C)sc3c2)c1` stands 16.5%; under `CC(=O)c1sc(Nc2nc(C)cc(C)n2)nc1C`, -0.917%; under `O=C(CCNS(=O)(=O)c1ccc(Cl)cc1)NCc1cccs1`, 11.3%.
Consider `Cc1cccc2nc(CSc3nc4[nH]ncc4c(=O)n3-c3ccccc3Cl)cc(=O)n12`, for which the “hERG current change (%, negative = inhibition) at 1uM” value amounted to 10.6%.
For `CN1CCN(c2ccccc2NC(=O)c2ccc([N+](=O)[O-])cc2Cl)CC1`, the “hERG current change (%, negative = inhibition) at 1uM” value is on record as 0.769%.
Turning to `Cc1nn(CCC#N)c(N)c1C1(O)C(=O)Nc2c(Cl)cc(Cl)cc21` (centres unmarked), the “hERG current change (%, negative = inhibition) at 1uM” value is 8.12%.
The result for `CN1CCN(NC(=O)c2ccc(Cl)c([N+](=O)[O-])c2)CC1` reads 10.8%.
Under `O=C1NCCCC1C(=O)N/N=C/c1cc([N+](=O)[O-])ccc1O` (centres unmarked) stands 5.34%; under `CCOCCCNC(=O)/C(C#N)=C/c1cc(C)c(O)c(C)c1`, 14.1%; under `Cc1cc(=O)oc2c(CN3CCCCC3)c(O)c(Cl)cc12`, 2.8%.
The result for `Cc1cc(C)n2cnnc2n1` reads 30.1%; that for `O=C(CCC1CCCC1)NCCCN1CCOCC1`, 13%; that for `COC(=O)C1=C(c2cccc(OC)c2OC)C[C@@H]2CC[C@H]1N2C(=O)NC(C)C`, 12.9%.
With `CC(C)(Oc1ccc(Cl)cc1)C(=O)Nc1ccc2oc(=O)ccc2c1`, the “hERG current change (%, negative = inhibition) at 1uM” value is -10%.
Under `CCCc1nnc(NC(=O)CCS(=O)(=O)c2ccccc2)s1` stands -13.8%.
Consider `O=C(C[n+]1cc(Br)cc2ccccc21)c1ccc(Cl)cc1.[Br-]`, for which the “hERG current change (%, negative = inhibition) at 1uM” value is -11.3%.
Under `O=C(Cn1nc(-c2ccc(Cl)cc2)ccc1=O)N1CCN(c2ccccc2)CC1` stands -0.114%; under `O=C(CN1C2CCCC1CC(NC(=O)c1ccccc1)C2)NC1CC1` (centres unmarked), 15%.
Under `CS(=O)(=O)c1ccc(-c2cccc(NC(=O)c3ccco3)c2)nn1` stands 17.9%; under `CC12CCC(C(=O)Nc3ccccc3)(C/C1=N\O)C2(C)C` (centres unmarked), 10.4%.
Consider `C[C@]12CC[C@@H]3c4ccc(O)cc4CC[C@H]3[C@@H]1CC[C@@H]2OC(=O)CCC(=O)O`, for which the “hERG current change (%, negative = inhibition) at 1uM” value is on record as 15.6%.
Under `Cc1ccc(CN2CCCC(C(=O)N3CCCC3)C2)cc1.O=C(O)C(=O)O` (centres unmarked) stands 5.11%; under `CCSc1nnc([C@H](Cc2ccccc2)NC(=O)OC(C)(C)C)o1`, 5.6%.
The result for `COc1ccc(OC)c(S(=O)(=O)Nc2cccnc2)c1` reads 11.7%.
The result for `O=C(c1ccc(F)cc1)c1cn(Cc2ccc(F)cc2)c2cc3c(cc2c1=O)OCCO3` reads 8.34%.
Turning to `COc1cc2nc(=S)n3[nH]c(CCn4nc(C)cc4C)nc3c2cc1OC`, the “hERG current change (%, negative = inhibition) at 1uM” value amounted to 12.3%.
Under `CN1CCc2c(sc3c2C(=O)NC(c2ccc(-c4cccc(Cl)c4)o2)N3)C1` (centres unmarked) stands 1.07%; under `COc1ccccc1CN(C)C(=O)c1cccc(S(=O)(=O)N2CCCC2)c1`, 2.41%.
Under `Cc1cccc(-[n+]2c(-c3cccc(Br)c3)[nH]c3nc4ccccc4nc32)c1` stands 13.2%; under `O=[N+]([O-])c1ccc(C(O)C23CN4CN(CN(C4)C2)C3)cc1` (centres unmarked), 15.9%.
With `CC(C)CC(NC(=O)C1CCCN1C(=O)[C@@H](C)NC(=O)OCc1ccccc1)C(=O)NCC(N)=O` (some centres unmarked) (Cbz-[dA][ξP][ξL]G-NH2), the “hERG current change (%, negative = inhibition) at 1uM” value came out at 9.32%.
For `COc1ccc(NS(=O)(=O)c2cc(NC(=O)c3cc(F)c(F)c(F)c3F)ccc2N2CCCC2)cc1`, the “hERG current change (%, negative = inhibition) at 1uM” value is listed as 8.93%.
As for `Cc1ccc(S(=O)(=O)/N=C/c2ccc(N(C)C)cc2)cc1`, the “hERG current change (%, negative = inhibition) at 1uM” value is 15.8%.
Under `CCC(C(=O)NC1CCCC1)N(C(=O)Cn1nnc(-c2ccc(C)o2)n1)c1ccc(OC)cc1` (centres unmarked) stands 5.86%; under `CC1(NC(=O)c2ccccc2)CCN(CCCc2ccccc2)C1=O` (centres unmarked), 10.9%; under `COC(=O)c1cc(NC(=O)CN(c2ccc3c(c2)OCO3)S(C)(=O)=O)ccc1Cl`, 4.48%.
Under `CCOC(=O)c1c(C=O)c2ccccc2n1Cc1ccccc1` stands 10.9%; under `COc1ccc(/C(C)=N/NC(=O)CN(c2ccc(OC)cc2)S(=O)(=O)c2ccccc2)cc1`, 14.7%.
